Experimental findings from the antibiotic and cytotoxicity screens of Wong et al. (2023) are described below.

This is one part of the list.

In the experiment the test system is S. aureus RN4220. The experiment is described as follows: growth inhibition call (relative growth <= 0.2). The conditions noted are these: 50 µM.
With `Cn1cnc(S(=O)(=O)N2C[C@H](O)COC[C@H]3O[C@H](CC(=O)NCc4cccc(F)c4)CC[C@@H]32)c1`, the growth inhibition call is “inactive”. The value for `C#CCCCCCCCCCCC[C@H](O)C[C@H](O)CO.C=CCCCCCCCCCCC[C@H](O)C[C@H](O)CO` was “inactive”; that for `Cc1ccc(S(=O)(=O)N(C)C[C@@H]2OCCCC[C@H](C)Oc3ccc(NS(C)(=O)=O)cc3C(=O)N([C@H](C)CO)C[C@H]2C)cc1` was “inactive”.

`C[C@@H]1CN([C@@H](C)CO)C(=O)c2cc(NS(C)(=O)=O)ccc2O[C@@H](C)CCCCO[C@@H]1CN(C)C(=O)Nc1ccc(C(F)(F)F)cc1`: the growth inhibition call is “inactive”.

For `COc1ccc(S(=O)(=O)N2CC(NC(=O)Cn3ccc(=O)n(C)c3=O)C2)cc1`, the growth inhibition call is “inactive”. On to `COC(=O)[C@@H](NC(=O)Cn1cc(COc2ccccc2/C=C(C)/C=C/C(=O)NO)nn1)c1ccccc1`, for which the growth inhibition call is “inactive”. With `C[C@H](CO)N1C[C@H](C)[C@@H](CN(C)C(=O)CN2CCOCC2)Oc2ncc(/C=C/c3ccccc3)cc2C1=O`, the growth inhibition call was “inactive”.

For the compound `NCC[C@H]1CC[C@@H](NC(=O)C2CCCCC2)[C@@H](CO)O1`, the growth inhibition call is “inactive”. In the case of `CNC(=O)C[C@@H]1CC[C@H]2[C@@H](COc3ccc(NC(=O)c4ccc(C(F)(F)F)cc4)cc3C(=O)N2C)O1`, the growth inhibition call is “inactive”. The value for `COc1cc2c(cc1OC)-c1c(oc3c4c(ccc3c1=O)OC(C)(C)C=C4)CO2` was “inactive”; that for `C[C@@H]1CCCCO[C@H](CN(C)C(=O)c2ccncc2)[C@H](C)CN([C@H](C)CO)C(=O)c2cc(NS(C)(=O)=O)ccc2O1` was “inactive”. As for `COCC(=O)Nc1ccc2c(c1)C(=O)N(C)C[C@H](OC)[C@@H](C)CN(C(=O)Cc1ccccn1)[C@H](C)CO2`, the growth inhibition call is “inactive”. As to `Cn1c(S(=O)(=O)CC(N)=O)nc2ccccc21`, the growth inhibition call is “inactive”. As to `COc1ccc(CN(C)C[C@@H]2OCCCC[C@@H](C)Oc3ccc(NC(=O)Nc4ccc(F)cc4)cc3C(=O)N([C@@H](C)CO)C[C@H]2C)cc1`, the growth inhibition call is “inactive”. The value for `COc1ccc(NC(=O)N(C)C[C@@H]2OCCCC[C@H](C)Oc3ccc(NS(=O)(=O)c4ccc(C)cc4)cc3C(=O)N([C@H](C)CO)C[C@@H]2C)cc1` was “inactive”.

Regarding `C[C@H](CO)N1C[C@H](C)[C@H](CN(C)S(=O)(=O)c2ccc(Cl)cc2)Oc2ccc(NC(=O)CCCN(C)C)cc2CC1=O`, the growth inhibition call is “inactive”.

Consider `CNC[C@@H]1Oc2ccc(NS(=O)(=O)c3cn(C)cn3)cc2C(=O)N([C@@H](C)CO)C[C@H]1C`, for which the growth inhibition call was “inactive”. For `CN1C(=O)c2cc(NC(=O)c3cccs3)ccc2OC[C@H]2O[C@H](CC(=O)NCCN3CCCCC3)CC[C@@H]21` the value was “inactive”. For `O=C(C[C@@H]1C=C[C@@H](NC(=O)CN2CCOCC2)[C@@H](CO)O1)NC1CCC1` the value was “inactive”. The value for `Cc1noc(C)c1S(=O)(=O)Nc1ccc2c(c1)C(=O)N([C@@H](C)CO)C[C@H](C)[C@@H](CN(C)S(=O)(=O)c1cn(C)cn1)O2` was “inactive”; that for `Cc1noc(C)c1S(=O)(=O)N(C)C[C@H]1Oc2ccc(NS(=O)(=O)c3ccccc3)cc2CC(=O)N([C@@H](C)CO)C[C@H]1C` was “inactive”; that for `C[C@@H]1CN([C@@H](C)CO)C(=O)c2cc(NC(=O)Cc3ccccc3)ccc2O[C@@H]1CN(C)S(=O)(=O)c1cn(C)cn1` was “inactive”. For the compound `C[C@@H]1CN([C@H](C)CO)S(=O)(=O)c2ccc(C#CC3(O)CCCC3)cc2O[C@@H]1CN(C)C(=O)Cc1ccccc1`, the growth inhibition call was “inactive”. For `COc1ccc(S(=O)(=O)N(C)C[C@H]2Oc3ccc(NS(=O)(=O)c4cccs4)cc3C(=O)N([C@@H](C)CO)C[C@@H]2C)cc1` the value was “inactive”; for `COCCNC(=O)C[C@@H]1CC[C@@H]2[C@H](COC[C@@H](O)CN2C(=O)Nc2ccc3c(c2)OCO3)O1`, “inactive”; for `Oc1ccc(C2(c3ccccc3F)CCC(F)(F)CC2)cc1`, “active”. For `C[C@H](CO)N1C[C@H](C)[C@H](CN(C)S(C)(=O)=O)Oc2ncc(Br)cc2C1=O`, the growth inhibition call was “inactive”. For `Cc1ccc(S(=O)(=O)N(C)C[C@H]2OCCCC[C@H](C)Oc3ccc(NC(=O)Nc4cccc5ccccc45)cc3C(=O)N([C@H](C)CO)C[C@H]2C)cc1` the value was “inactive”; for `COC(=O)C[C@H]1CC[C@H](N)[C@@H](CO)O1`, “inactive”. As for `CCOC(=O)N(C)C[C@H]1OCc2cn(nn2)CCCC(=O)N([C@H](C)CO)C[C@@H]1C`, the growth inhibition call was “inactive”. As for `COc1ccc(NC(=O)N(C)C[C@@H]2Oc3c(NC(=O)Nc4ccc(C(F)(F)F)cc4)cccc3C(=O)N([C@H](C)CO)C[C@@H]2C)cc1`, the growth inhibition call is “inactive”.

With `CCCCCNC(=N)NN=Cc1c[nH]c2ccc(OC)cc12.O=C(O)C=CC(=O)O`, the growth inhibition call is “inactive”. For `COc1ccc([Si](C)(C)[C@H]2[C@H](CCn3cc([C@H](O)c4ccccc4)nn3)O[C@@]3(C(=O)N(Cc4ccc(N5CCOC5=O)cc4)c4ccccc43)[C@@H]2C)cc1` the value was “inactive”. Turning to `COc1ccc(cc1)S(=O)(=O)N1C[C@]2(CN(Cc3ccncc3)[C@H](CO)c3[nH]c4cc(ccc4c32)OC)C1`, the growth inhibition call was “inactive”. For `C[C@@H]1CCCCO[C@H](CN(C)C(=O)Nc2ccc(F)cc2)[C@H](C)CN([C@@H](C)CO)C(=O)c2cc(NC(=O)CCC(F)(F)F)ccc2O1` the value was “inactive”. For `Clc1ccc(/C=N/Cc2ccc(-c3cccs3)s2)cc1` the value was “inactive”; for `C[C@H](CO)N1C[C@H](C)[C@H](CN(C)S(=O)(=O)c2ccc(F)cc2)Oc2ccc(NS(=O)(=O)c3cccs3)cc2CC1=O`, “inactive”; for `C[C@@H]1CN([C@H](C)CO)C(=O)c2cccc(NS(=O)(=O)c3cn(C)cn3)c2O[C@@H]1CN(C)S(=O)(=O)c1cn(C)cn1`, “inactive”.

Consider `C[C@@H]1CCCCO[C@@H](CN(C)C(=O)Nc2cccc3ccccc23)[C@H](C)CN([C@@H](C)CO)C(=O)c2cc(NC(=O)Cc3ccccc3)ccc2O1`, for which the growth inhibition call is “inactive”. In the case of `COc1ccc(S(=O)(=O)Nc2ccc3c(c2)C(=O)N([C@@H](C)CO)C[C@@H](C)[C@@H](CN(C)S(=O)(=O)c2ccc(OC)cc2)O3)cc1`, the growth inhibition call is “inactive”.
